# Article PMC4336329 (PLoS ONE, 2015)
# In all, about 310,000 compounds went through this assay and about 14,000 (4.5%) showed an effect of 50% or more. The effect is printed as a negative number. The list shows a part of the results.
# Biological target: human ether-à-go-go-related gene (hERG) potassium channel (human, UniProt Q12809)
# Assay: primary screen, population patch clamp on CHO cells stably expressing hERG
# 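Further: peak tail current of the secondary pulse compared with the same well before compound.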
# human ether-à-go-go-related gene (hERG) potassium channel, sequence (Q12809 whole entry, looked up): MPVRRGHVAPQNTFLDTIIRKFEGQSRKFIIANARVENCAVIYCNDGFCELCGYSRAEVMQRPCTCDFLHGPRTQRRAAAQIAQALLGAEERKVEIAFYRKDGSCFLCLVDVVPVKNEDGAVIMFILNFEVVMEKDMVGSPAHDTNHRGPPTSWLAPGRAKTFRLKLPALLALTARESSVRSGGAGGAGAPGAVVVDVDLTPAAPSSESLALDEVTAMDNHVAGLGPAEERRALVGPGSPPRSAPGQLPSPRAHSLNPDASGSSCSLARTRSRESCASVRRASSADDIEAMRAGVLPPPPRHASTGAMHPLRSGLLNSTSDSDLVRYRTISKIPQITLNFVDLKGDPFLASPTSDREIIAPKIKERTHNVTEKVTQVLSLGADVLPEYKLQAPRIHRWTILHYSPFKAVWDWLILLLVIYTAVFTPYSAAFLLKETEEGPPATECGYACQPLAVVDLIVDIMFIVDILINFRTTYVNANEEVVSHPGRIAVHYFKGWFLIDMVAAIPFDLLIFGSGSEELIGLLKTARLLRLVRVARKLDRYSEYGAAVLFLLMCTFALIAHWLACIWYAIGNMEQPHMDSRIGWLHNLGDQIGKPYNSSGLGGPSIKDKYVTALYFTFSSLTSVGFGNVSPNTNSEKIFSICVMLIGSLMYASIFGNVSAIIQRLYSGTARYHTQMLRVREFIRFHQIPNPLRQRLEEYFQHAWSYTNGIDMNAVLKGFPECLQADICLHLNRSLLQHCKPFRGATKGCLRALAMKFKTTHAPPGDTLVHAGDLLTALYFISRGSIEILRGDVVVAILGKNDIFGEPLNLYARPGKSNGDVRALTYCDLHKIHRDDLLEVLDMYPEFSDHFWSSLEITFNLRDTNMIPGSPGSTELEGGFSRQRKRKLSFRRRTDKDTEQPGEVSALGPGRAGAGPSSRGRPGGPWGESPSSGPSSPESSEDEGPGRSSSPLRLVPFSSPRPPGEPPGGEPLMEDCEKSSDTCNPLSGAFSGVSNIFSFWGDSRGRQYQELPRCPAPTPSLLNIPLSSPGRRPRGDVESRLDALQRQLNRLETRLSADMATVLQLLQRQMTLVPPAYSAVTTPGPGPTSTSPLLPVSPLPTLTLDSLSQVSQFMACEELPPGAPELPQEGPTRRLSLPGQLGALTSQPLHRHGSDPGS
row,Structure (SMILES),"hERG current change (%, negative = inhibition) at 10uM [%]"
1,CCOC(=O)/C(C#N)=C/Nc1ccsc1C(C)=O,4.06
2,Cc1ccc(COC(=O)CCN=C2NS(=O)(=O)c3ccccc32)cc1,-15.7
3,CC(=O)Nc1ccc(NC(=O)CSc2cn(CC(=O)N3CCOCC3)c3ccccc23)cc1,23.3
4,COc1ccc(CN(C)CC(=O)Nc2cc(OC)c([N+](=O)[O-])cc2C)c(OC)c1,-48.6
5,COc1ccc2cc([C@H](C)C(=O)N(C)Cc3ccccc3N3CCCC3)ccc2c1,16.5
6,COc1ccc(NC(=O)c2sc3nc(N4CCOCC4)c4c(c3c2N)CCCC4)c(OC)c1,14
7,O=C(Nc1cccc(F)c1)c1c(O)c2ccccc2[nH]c1=O,21.3
8,CC1CCc2c(sc(NC(=O)COC(=O)c3ccc(O)cc3)c2C#N)C1 (stereo not drawn),15.3
9,COc1cc(C)c(Cl)cc1S(=O)(=O)n1cnc2ccccc21,-8.11
10,CC(C)OCCCNc1nc2c(-c3ccccc3)nnn2c2ccccc12,20.2
11,O=c1[nH]c(CN2CCN(Cc3ccc4c(c3)OCO4)CC2)nc2ccccc12,-58.9
12,COc1ccc(CCNC(=O)/C(C#N)=C2\N=C(NC(=O)c3cccs3)c3ccccc32)cc1,-18.5
13,Cc1ccccc1C(=O)NNC(=O)C1CC(=O)N(Cc2ccccc2)C1 (stereo not drawn),2.19
14,CSc1ncccc1C(=O)Nc1ccc(OC(F)(F)F)cc1,11.5
15,C=CCSc1nc(N)cc(=O)[nH]1,0.914
16,CC(=O)Nc1ccc(S(=O)(=O)Nc2cc(C)cn(Cc3ccccc3)c2=O)cc1,6.4
17,CCOC(=O)C1(Cc2cccc(OC)c2)CCCN(Cc2cc(C(C)C)n[nH]2)C1 (stereo not drawn),-13.8
18,CCOC(=O)C1CCCN(C(=O)c2cc(-c3ccc(F)cc3)nc3ccccc23)C1 (stereo not drawn),-33.8
19,COc1ccccc1C(=O)NNC(=O)C(=O)Nc1ccc(C)c(Cl)c1,4.41
20,O=[N+]([O-])c1cc(F)c(N2CCCCCC2)cc1N1CCNCC1,-33.5
21,CC(C(=O)N(C)C1CCS(=O)(=O)C1)N1C(=O)/C(=C/c2ccc(F)cc2)SC1=S (stereo not drawn),-35.7

row,Structure (SMILES),"hERG current change (%, negative = inhibition) at 10uM [%]"
1,CS(=O)(=O)c1ccc(Cl)c(NC(=O)COC(=O)CNC(=O)c2ccccc2)c1,-2.97
2,O=C(O)c1oc2ccccc2c1CSc1ccccn1,3.38
3,CC(NC(=O)c1ccc([N+](=O)[O-])cc1Cl)C1CC2CCC1C2 (stereo not drawn),-58.2
4,COc1ccc(S(=O)(=O)N2CCCCC2)cc1NC(=O)CCNC(=O)c1ccc(Br)cc1,14.6
5,Cn1cnc([N+](=O)[O-])c1Sc1ncnc2nc[nH]c12,1.46
6,CC(=O)Nc1ccc(S(=O)(=O)NCC2CCC(C(=O)NCCc3ccccc3)CC2)cc1 (stereo not drawn),9.92
7,Cc1cccc(C(=O)NCC(=O)N2CCN(S(=O)(=O)c3ccc4c(c3)OCCO4)CC2)c1,-20.4
8,COCCCNC(=O)C1CCN(S(=O)(=O)c2c(C)noc2/C=C\c2ccc(OC)cc2)CC1,-18.1
9,CC(C)NCc1cccc([N+](=O)[O-])c1.O=C(O)C(=O)O,3.39
10,O=C(CCN1C(=O)c2ccccc2C1=O)NCCCn1ccnc1,11.3
11,O=C(c1cccs1)N1CCN(c2nc3ccccc3s2)CC1,0.757
12,O=C1CN(C(=O)CSc2nnc(Nc3ccccc3)s2)c2ccccc2N1,0.255
13,CCc1cc(=O)oc2c3c(cc(OCC(=O)NCCCC(=O)O)c12)OC(C)(C)CC3,10.5
14,CCN(Cc1cc2cc(OC)ccc2[nH]c1=O)C(=O)c1ccncc1,-21.1
15,CCCNC(=O)N1[C@H]2CC[C@@H]1C(C(=O)OC)=C(c1cccc(C#N)c1)C2,5.29
16,Cc1cccc(C)c1N1CCN(CCn2c(=S)[nH]c3ccccc3c2=O)CC1,29.6
17,Cl.NS(=O)(=O)c1ccc(CCNCc2cc(Cl)ccc2OCc2ccccc2)cc1,-74.5
18,O=S(=O)(NC(=NC1CCCCC1)c1ccccc1)c1ccccc1,-14.7
19,Cc1nc(-c2cccc(NS(=O)(=O)c3cccc4ccccc34)c2)cs1,12.3
20,C=CCn1c(C2CC2)n[nH]c1=S,-40.4
21,Cc1ccc(NC2CCCN(C(=O)c3ccc(-n4ccnc4)cc3)C2)cc1C (stereo not drawn),-40.2

row,Structure (SMILES),"hERG current change (%, negative = inhibition) at 10uM [%]"
1,CCCCCc1cc(O)c2c3c(c(=O)oc2c1)CN(C)CC3,-33.1
2,Cc1ccc(S(=O)(=O)c2ccc(Cl)cc2)cc1S(=O)(=O)NC(C(=O)O)C(C)C (stereo not drawn),14.4
3,CCc1csc(CCNC(=O)C2CCC(=O)N(CCOC)C2)n1 (stereo not drawn),18
4,COc1cc(OC)cc(-c2c(-c3cccs3)c3cc(-c4ccc(N(C)C)nc4)ccc3n2C)c1,10.2
5,O=C(NCCCc1ccccc1)c1ccc(-n2cncn2)c([N+](=O)[O-])c1,-60.5
6,CCCCNC(=S)N1CCN(Cc2ccc3c(c2)OCO3)CC1.O=C(O)C(=O)O,-11
7,Cc1cc(-c2c(C(=O)N3CCOCC3)c(C)nn2-c2cccc(C(F)(F)F)c2)no1,-1.26
8,CCOCCN1CCN(c2c(C)c(C)nc3cc(-c4cc(OC)cc(OC)c4)nn23)CC1,-73.3
9,CCOc1ccc(/C=N/n2c(SC)nnc2-c2ccccc2)cc1OCC,-25.6
10,CC(=O)Nc1cccc(NC(=O)CCNC(=O)c2ccc(Cl)cc2)c1,10.2
11,Cc1ccc(NC(=O)c2cccc(NC(=O)/C=C/c3ccco3)c2)cc1C,4.3
12,C=CCn1c2ccccc2c(=O)c2cc(C#CC[C@@H](C)O)ccc21,-4.94
13,CCOc1ccc(CC(=O)Nc2ccc(S(=O)(=O)N3CCCC3)cc2)cc1,10.4
14,CCOC(=O)N1C2=NC(C(=O)OC)=C(C(=O)OC)[C@@H]3N(Cc4ccccc4)c4ccccc4[C@]23C[C@H]1C(=O)OC,-17.1
15,S=c1[nH]nc(-c2ccncc2)n1/N=C/c1cccc(Cl)c1,15.8
16,O=C(NNC(=O)c1cc(C(F)(F)F)cc(C(F)(F)F)c1)c1ccc(Cl)cc1,4.89
17,O=C(OCC(=O)N1CCC(Cc2ccccc2)CC1)c1ccccc1,8.88
18,Cc1c(C(=O)NCc2ccccn2)sc2nc(-c3ccccc3)cn12,-18.6
19,CCCCCC(=O)Nc1c(-c2ccc(OC)cc2)c(=O)c2ccccc2n1C,14.9
20,O=C(c1cccc(S(=O)(=O)N2CCOCC2)c1)N1CCN(C/C=C/c2ccccc2)CC1,-46.3
21,CC(=O)N1CCC(C(=O)Nc2cc(C)cc(C)c2)CC1,3.74

row,Structure (SMILES),"hERG current change (%, negative = inhibition) at 10uM [%]"
1,O=S(=O)(c1cccs1)N1CCC(CO)(Cc2cccc(F)c2)CC1,-46.2
2,Cc1ccc(S(=O)(=O)N2CCN(C(=O)CSc3ncn[nH]3)CC2)cc1,14.8
3,Cc1ccc(C)c(S(=O)(=O)N2CCN(C(=O)c3ccncc3)CC2)c1,6.02
4,COc1ccc2[nH]c3ccccc3c2c1,2.66
5,O=C(CSc1nccc(=O)[nH]1)NCc1ccc(Cl)cc1,-2.95
6,COC(=O)c1c(C)n(-c2ccc(C)cc2)c2ccc(O)cc12,-3.54
7,CC(=O)c1c(C)n(-c2ccc(Cl)cc2)c2ccc(O)cc12,12.5
8,CCn1c(=O)c2sccc2n2c(CCCC(=O)NC3CCN(Cc4ccccc4)CC3)nnc12,-6.43
9,COC(=O)C1=C(C(=O)OC)[C@@H]2N(Cc3ccccc3)c3ccccc3[C@@]23C[C@@H](C(=O)OC)N(C(=O)COCc2ccccc2)C3=N1,4.76
10,COc1ccc(NC(=O)CSc2nnc(-c3ccoc3C)n2CC2CCCO2)cc1 (stereo not drawn),-5.04
11,Cc1cccc(CN2CCCC(C(=O)c3ccc(C(F)(F)F)cc3)C2)n1 (stereo not drawn),-68.2
12,Cc1nnc(Oc2ccc([N+](=O)[O-])cc2)c2ccccc12,-25.2
13,CCC(=O)N(CCC(c1ccco1)c1ccccc1OC)Cc1cccs1 (stereo not drawn),-48.1
14,CC1Cc2ccccc2N1C(=O)COc1nc2ccccc2nc1N1CCOCC1 (stereo not drawn),7.69
15,O=S(=O)(c1ccc(F)cc1)N1CCCCC1c1cccnc1 (stereo not drawn),-0.138
16,CC(=O)NC(Cc1ccc(C)cc1)C(=O)NC1CCN(C(=O)c2cnccn2)CC1 (stereo not drawn),8.09
17,NC(=O)CC(NC(=O)OCc1ccccc1)C(=O)O (stereo not drawn),-22
18,COc1cc(NC(=O)C(=O)N2CCN(C)CC2)c(OC)cc1Cl,16.4
19,Cc1ccsc1/C=N/NC(=O)CN1CCN(Cc2ccccc2)CC1,-8.1
20,CN(CC(=O)NC1CCCc2ccccc21)S(=O)(=O)c1ccc2c(c1)c(=O)n(C)c(=O)n2C (stereo not drawn),4.5
21,CC(C)(C)c1cc(C(=O)O)n(Cc2ccc(Cl)cc2Cl)n1,-0.322
